This is an account of results in publication PMC3292316 (Diabetes, 2011).

The test has as its target GST-fused PPP1R3G (mouse, UniProt Q9CW07). Description: pull-down.

B1: His-tagged PP1c (catalytic subunit of PP1, α isoform) (enzyme)
chain: not shown
In the case of B1, the binding result was “binds”.
